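In this assay, cells in 96-well plates receive the compound at five concentrations for 48 hours. Endpoints are linearly interpolated between the surrounding concentrations. GI50 = concentration required for 50% inhibition of growth.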 For part of its entries the source gives two or more results. They are shown here; other results are not. The source may hold further records. A record mostly stands for its own series of concentrations, not given here; some values may only mark the edge of a range.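 Definition used: TGI = concentration required for complete inhibition of growth.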
Legend:
Assay in all cases: DTP human tumour cell line panel, 48 h
OVCAR-5 ovarian = tested on: OVCAR-5 ovarian
HCT-15 colon = tested on: HCT-15 colon
SK-MEL-5 melanoma = tested on: SK-MEL-5 melanoma
NCI-H460 lung = tested on: NCI-H460 lung
UACC-62 melanoma = tested on: UACC-62 melanoma
HOP-92 NSCLC = tested on: HOP-92 NSCLC
COLO 205 colon = tested on: COLO 205 colon
NCI-H522 lung = tested on: NCI-H522 lung
TK-10 renal = tested on: TK-10 renal
RXF 393 renal = tested on: RXF 393 renal
UACC-257 melanoma = tested on: UACC-257 melanoma
M14 melanoma = tested on: M14 melanoma
NCI-H226 lung = tested on: NCI-H226 lung

Row | SMILES | GI50 (OVCAR-5 ovarian) | GI50 (HCT-15 colon) | TGI (SK-MEL-5 melanoma) | TGI (NCI-H460 lung) | TGI (UACC-62 melanoma) | TGI (HOP-92 NSCLC) | TGI (COLO 205 colon) | TGI (NCI-H522 lung) | GI50 (TK-10 renal) | TGI (RXF 393 renal) | GI50 (UACC-257 melanoma) | TGI (UACC-257 melanoma) | TGI (M14 melanoma) | GI50 (NCI-H226 lung) | TGI (NCI-H226 lung)
1 | CCc1c2c(nc3cccc(N)c13)-c1cc3c(c(=O)n1C2)COC(=O)[C@]3(O)CC | 833 nM and 18.1 nM | 716 nM and 25.7 nM | 125 nM and 11.3 nM | 1.7 µM and 33.3 nM | 450 nM and 18.7 nM | 402 nM and 37.8 nM | 9.22 µM and > 100 µM | 1.54 µM and 49.6 nM | 4.37 µM and 64.6 nM | 1.46 µM and 20.1 nM | 295 nM and 21.1 nM | 2.94 µM and > 100 µM | – | – | –
2 | CCCCCc1c(C)[nH]c(/C=C2\N=C(c3ccc[nH]3)C=C2Oc2ccc(Cl)cc2)c1C | – | – | – | – | – | – | – | – | – | – | – | – | 1.26 µM and 58.7 nM | 67.9 nM and 811 nM | 1.69 µM and > 100 µM

Source: PubChem BioAssay (NCI)
